Reference: the supplement of paper PMC10369915
The other results are listed elsewhere or left out. Cut-off read from the data, not from the text of the source: active = 3.2 or more and inactive = the rest. Only a few entries rise above the background.

Assays:
Experiment in all cases: enrichment score (SH2-bound / input frequency) (ratio); bacterial display of known human phosphotyrosine sites (pTyr-Var adds point mutants) read by sequencing; higher = stronger binding; tyrosines were phosphorylated by kinases first
Details in all cases: peptide library: Human pTyr
SHP2 C-SH2 domain E139D = biological target: SHP2 C-SH2 domain E139D
[1] = biological target: SHP2 C-SH2 domain wild-type
SHP2 N-SH2 domain L43F = biological target: SHP2 N-SH2 domain L43F
SHP2 N-SH2 domain T42A = biological target: SHP2 N-SH2 domain T42A
SHP2 N-SH2 domain T52S = biological target: SHP2 N-SH2 domain T52S
[2] = biological target: SHP2 N-SH2 domain wild-type
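Note: displayed peptides selected on beads carrying the immobilized SH2 domain, with library peptides lacking any tyrosine serving as negative controls.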

| Binder | enrichment score (SHP2 C-SH2 domain E139D) | enrichment score [1] | enrichment score (SHP2 N-SH2 domain L43F) | enrichment score (SHP2 N-SH2 domain T42A) | enrichment score (SHP2 N-SH2 domain T52S) | enrichment score [2] |
| --- | --- | --- | --- | --- | --- | --- |
| NEEYGEFYKSLTNDW [HS90A_HUMAN_313] | inactive: 0.692 | inactive: 0.587 | inactive: 0.85 | inactive: 0.852 | inactive: 0.389 | inactive: 1.25 |
| EDTENWLYEDGEDQP [HSP74_HUMAN_660] | inactive: 1.32 | inactive: 1.08 | inactive: 1.12 | inactive: 1.08 | inactive: 1.37 | inactive: 1.27 |
| SLIINTFYSNKEIFL [HSP90AA1_HUMAN_38] | active: 3.49 | active: 4.44 | active: 3.62 | active: 3.98 | active: 3.72 | active: 4.62 |
| DDITQEEYGEFYKSL [HSP90AB1_HUMAN_301] | inactive: 1.18 | inactive: 1.31 | inactive: 1.39 | inactive: 1.11 | inactive: 1.2 | inactive: 1.45 |
| AKPKVEMYSGSDDDD [IF2P_HUMAN_134] | inactive: 1.15 | inactive: 0.989 | inactive: 1.12 | inactive: 1.03 | inactive: 1.31 | inactive: 1.32 |
| GFREVSFYYSEENKL [IGF1R_HUMAN_1280] | inactive: 1.59 | inactive: 1.57 | inactive: 1.33 | inactive: 1.27 | inactive: 1.48 | inactive: 1.72 |
| YASVNPEYFSAADVY [IGF1R_HUMAN_980] | inactive: 1.02 | inactive: 2.3 | inactive: 0.672 | inactive: 0.622 | inactive: 0.593 | inactive: 0.747 |
| AASVNPEYFSAADVA [IGF1R_HUMAN_980_YA] | inactive: 0.728 | inactive: 0.778 | inactive: 0.618 | inactive: 0.714 | inactive: 0.936 | inactive: 0.69 |
| DSMKDEEYEQMVKEL [IKBA_HUMAN_42] | inactive: 0.979 | inactive: 1.13 | inactive: 0.863 | inactive: 0.883 | inactive: 1.2 | inactive: 1 |
| ELEKIQDYEKMPESI [IL1R1_HUMAN_496] | inactive: 1.27 | inactive: 1.03 | inactive: 1.11 | inactive: 1.3 | inactive: 1.26 | inactive: 1.43 |
| EKATGRAYAMKILRK [AKT2_HUMAN_178_YA] | inactive: 1.37 | inactive: 1.16 | inactive: 1.24 | inactive: 1.32 | inactive: 1.14 | inactive: 1.45 |
| ACQVYFTYDPYSEED [IL2RB_HUMAN_384] | inactive: 2.02 | inactive: 1.68 | inactive: 1.37 | inactive: 2.2 | inactive: 1.56 | inactive: 1.98 |
| GPPGEAGYKAFSSLL [IL4RA_HUMAN_603] | inactive: 0.684 | inactive: 0.569 | inactive: 0.516 | inactive: 0.663 | inactive: 0.661 | inactive: 0.659 |
| ASSGEEGYKPFQDLI [IL4RA_HUMAN_631] | inactive: 0.84 | inactive: 0.533 | inactive: 0.596 | inactive: 0.407 | inactive: 0.584 | inactive: 0.645 |
| DVDLGDGYIMRGGGG [INAR2_HUMAN_512] | inactive: 0.639 | inactive: 0.528 | inactive: 0.567 | inactive: 0.509 | inactive: 0.481 | inactive: 0.476 |
| DIYETDYYRKGGKGL [INSR_HUMAN_1190] | inactive: 0.909 | inactive: 0.701 | inactive: 0.845 | inactive: 0.731 | inactive: 0.666 | inactive: 0.869 |
| SYEEHIPYTHMNGGK [INSR_HUMAN_1361] | inactive: 1.11 | inactive: 1.14 | inactive: 0.558 | inactive: 0.586 | inactive: 0.699 | inactive: 0.917 |
| DGPLGPLYASSNPEY [INSR_HUMAN_992] | inactive: 0.439 | inactive: 0.498 | inactive: 0.877 | inactive: 0.451 | inactive: 0.52 | inactive: 0.44 |
| DGPLGPLYASSNPEA [INSR_HUMAN_992_YA] | inactive: 0.702 | inactive: 0.52 | inactive: 0.799 | inactive: 0.601 | inactive: 0.627 | inactive: 0.519 |
